# Measured values from PMC12820563.
# The other results are listed elsewhere or left out. The list includes weakly bound sequences.
# Molecular target: T1, MBP-FoxP3dN (UniProt Q99JB6)
# T1 sequence: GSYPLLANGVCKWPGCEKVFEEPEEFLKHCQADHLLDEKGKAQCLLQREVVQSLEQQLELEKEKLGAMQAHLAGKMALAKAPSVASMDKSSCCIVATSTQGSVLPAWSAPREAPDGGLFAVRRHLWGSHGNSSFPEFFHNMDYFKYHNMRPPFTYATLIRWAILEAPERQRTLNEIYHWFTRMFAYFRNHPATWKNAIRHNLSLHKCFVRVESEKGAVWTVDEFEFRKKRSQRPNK
# Test: PD-seq (MBP pull-down with sequencing)
# Settings: 20 mM Tris-HCl pH 7.5, 100 mM NaCl, 1.5 mM MgCl2, 0.4 uM protein, 0.1 uM dsDNA library, 30 min, room temperature, amylose pull-down; high values mean tight binding; double strand, one strand shown
row,Sequence,binding signal (RPM ratio (pull-down/input))
1,GATGATTGTTCTCCCAGCTGATGAATTGCAAAAGTCGAGTAAACAAATTTTCCTAATCTTTCTGTTCAAGCGCCATCTAC,0.476
2,GATGATTGTTCTCCCAGCTGATGAATTACCAGATTCGAGTAAACAAATTTTCCTAATCTTTCTGTTCAAGCGCCATCTAC,0.275
3,GATGATTGTTCTCCCAGCTGATGAATTAATTTAGTCGAGTAAACAAATTTTCCTAATCTTTCTGTTCAAGCGCCATCTAC,1.73
4,GATGATTGTTCTCCCAGCTGATGAATTATGTTCGTCGAGTAAACAAATTTTCCTAATCTTTCTGTTCAAGCGCCATCTAC,1.13
5,GATGATTGTTCTCCCAGCTGATGAATTACAGAGCTCGAGTAAACAAATTTTCCTAATCTTTCTGTTCAAGCGCCATCTAC,0.252
6,GATGATTGTTCTCCCAGCTGATGAATTATTGGGGTCGAGTAAACAAATTTTCCTAATCTTTCTGTTCAAGCGCCATCTAC,0.552
7,GATGATTGTTCTCCCAGCTGATGAATTGACGGTCTCGAGTAAACAAATTTTCCTAATCTTTCTGTTCAAGCGCCATCTAC,0.417
8,GATGATTGTTCTCCCAGCTGATGAATTAAACCATTCGAGTAAACAAATTTTCCTAATCTTTCTGTTCAAGCGCCATCTAC,0.478
9,GATGATTGTTCTCCCAGCTGATGAATTGTGCCCCTCGAGTAAACAAATTTTCCTAATCTTTCTGTTCAAGCGCCATCTAC,2.74
10,GATGATTGTTCTCCCAGCTGATGAATTGCACTGGTCGAGTAAACAAATTTTCCTAATCTTTCTGTTCAAGCGCCATCTAC,0.65
11,GATGATTGTTCTCCCAGCTGATGAATTCCAGCTCTCGAGTAAACAAATTTTCCTAATCTTTCTGTTCAAGCGCCATCTAC,0.322
12,GATGATTGTTCTCCCAGCTGATGAATTATATTCCTCGAGTAAACAAATTTTCCTAATCTTTCTGTTCAAGCGCCATCTAC,0.694
13,GATGATTGTTCTCCCAGCTGATGAATTAATAACCTCGAGTAAACAAATTTTCCTAATCTTTCTGTTCAAGCGCCATCTAC,0.362
14,GATGATTGTTCTCCCAGCTGATGAATTCTGTTACTCGAGTAAACAAATTTTCCTAATCTTTCTGTTCAAGCGCCATCTAC,2.49
15,GATGATTGTTCTCCCAGCTGATGAATTGGCATTTTCGAGTAAACAAATTTTCCTAATCTTTCTGTTCAAGCGCCATCTAC,3.38
16,GATGATTGTTCTCCCAGCTGATGAATTAAATATCTCGAGTAAACAAATTTTCCTAATCTTTCTGTTCAAGCGCCATCTAC,0.602
17,GATGATTGTTCTCCCAGCTGATGAATTTTTCTATTCGAGTAAACAAATTTTCCTAATCTTTCTGTTCAAGCGCCATCTAC,0.294
18,GATGATTGTTCTCCCAGCTGATGAATTAAAAGCCTCGAGTAAACAAATTTTCCTAATCTTTCTGTTCAAGCGCCATCTAC,0.437
19,GATGATTGTTCTCCCAGCTGATGAATTTCTAGCTTCGAGTAAACAAATTTTCCTAATCTTTCTGTTCAAGCGCCATCTAC,0.276
20,GATGATTGTTCTCCCAGCTGATGAATTCGGAGGATCGAGTAAACAAATTTTCCTAATCTTTCTGTTCAAGCGCCATCTAC,0.239

row,Sequence,binding signal (RPM ratio (pull-down/input))
1,GATGATTGTTCTCCCAGCTGATGAATTACGAATCTCGAGTAAACAAATTTTCCTAATCTTTCTGTTCAAGCGCCATCTAC,1.57
2,GATGATTGTTCTCCCAGCTGATGAATTAATAAACTCGAGTAAACAAATTTTCCTAATCTTTCTGTTCAAGCGCCATCTAC,0.532
3,GATGATTGTTCTCCCAGCTGATGAATTCAGCTACTCGAGTAAACAAATTTTCCTAATCTTTCTGTTCAAGCGCCATCTAC,1.32
4,GATGATTGTTCTCCCAGCTGATGAATTGGTACGTTCGAGTAAACAAATTTTCCTAATCTTTCTGTTCAAGCGCCATCTAC,0.546
5,GATGATTGTTCTCCCAGCTGATGAATTCTGGAGTTCGAGTAAACAAATTTTCCTAATCTTTCTGTTCAAGCGCCATCTAC,0.378
6,GATGATTGTTCTCCCAGCTGATGAATTTCAAATATCGAGTAAACAAATTTTCCTAATCTTTCTGTTCAAGCGCCATCTAC,0.296
7,GATGATTGTTCTCCCAGCTGATGAATTGGCCTCCTCGAGTAAACAAATTTTCCTAATCTTTCTGTTCAAGCGCCATCTAC,1.27
8,GATGATTGTTCTCCCAGCTGATGAATTCTCGTGCTCGAGTAAACAAATTTTCCTAATCTTTCTGTTCAAGCGCCATCTAC,0.324
9,GATGATTGTTCTCCCAGCTGATGAATTGTTCAGCTCGAGTAAACAAATTTTCCTAATCTTTCTGTTCAAGCGCCATCTAC,0.309
10,GATGATTGTTCTCCCAGCTGATGAATTATGGAAATCGAGTAAACAAATTTTCCTAATCTTTCTGTTCAAGCGCCATCTAC,0.4
11,GATGATTGTTCTCCCAGCTGATGAATTCATAAACTCGAGTAAACAAATTTTCCTAATCTTTCTGTTCAAGCGCCATCTAC,0.419
12,GATGATTGTTCTCCCAGCTGATGAATTGACATGATCGAGTAAACAAATTTTCCTAATCTTTCTGTTCAAGCGCCATCTAC,0.467
13,GATGATTGTTCTCCCAGCTGATGAATTGGGTCATTCGAGTAAACAAATTTTCCTAATCTTTCTGTTCAAGCGCCATCTAC,0.64
14,GATGATTGTTCTCCCAGCTGATGAATTGTCATCATCGAGTAAACAAATTTTCCTAATCTTTCTGTTCAAGCGCCATCTAC,1.23
15,GATGATTGTTCTCCCAGCTGATGAATTCACGGCTTCGAGTAAACAAATTTTCCTAATCTTTCTGTTCAAGCGCCATCTAC,0.28
16,GATGATTGTTCTCCCAGCTGATGAATTGTTACAGTCGAGTAAACAAATTTTCCTAATCTTTCTGTTCAAGCGCCATCTAC,0.91
17,GATGATTGTTCTCCCAGCTGATGAATTTTAATATTCGAGTAAACAAATTTTCCTAATCTTTCTGTTCAAGCGCCATCTAC,1.97
18,GATGATTGTTCTCCCAGCTGATGAATTAAGGTCTTCGAGTAAACAAATTTTCCTAATCTTTCTGTTCAAGCGCCATCTAC,0.429
19,GATGATTGTTCTCCCAGCTGATGAATTTCGACTATCGAGTAAACAAATTTTCCTAATCTTTCTGTTCAAGCGCCATCTAC,0.692
20,GATGATTGTTCTCCCAGCTGATGAATTGTTATGCTCGAGTAAACAAATTTTCCTAATCTTTCTGTTCAAGCGCCATCTAC,3.15
